The text below walks through data of article PMC12529666.

Holding throughout (test): RNA Bind-n-Seq (nitrocellulose filter binding and sequencing)
Common to all, as to details: constant regions annealed to DNA blockers; guide miR-122 5' phosphate; 30 mM Tris pH 8.0, 100 mM potassium acetate, 2 mM magnesium acetate, 0.5 mM TCEP, 0.005% NP-40, 0.01 mg/ml yeast tRNA; 3 nM AGO2-miR-122, 100 nM RNA library …; high values mean tight binding

For test [1], the target named is AGO2 WT (phosphosite mutant background) S387D + S824A + S828D + S831D + S834A (UniProt Q9UKV8).
The target in test [2] is AGO2 F182del S387D + S824A + S828D + S831D + S834A + del182-182 (UniProt Q9UKV8).
Test [3] deals with AGO2 A367P A367P + S387D + S824A + S828D + S831D + S834A (UniProt Q9UKV8).

The entries are a selection whose mix differs from that of the whole data set. At the low end of the ranking the order means little. The list shows a part of the results.

Chain of UniProt Q9UKV8 (Q9UKV8 whole entry S387D/S824A/S828D/S831D/S834A): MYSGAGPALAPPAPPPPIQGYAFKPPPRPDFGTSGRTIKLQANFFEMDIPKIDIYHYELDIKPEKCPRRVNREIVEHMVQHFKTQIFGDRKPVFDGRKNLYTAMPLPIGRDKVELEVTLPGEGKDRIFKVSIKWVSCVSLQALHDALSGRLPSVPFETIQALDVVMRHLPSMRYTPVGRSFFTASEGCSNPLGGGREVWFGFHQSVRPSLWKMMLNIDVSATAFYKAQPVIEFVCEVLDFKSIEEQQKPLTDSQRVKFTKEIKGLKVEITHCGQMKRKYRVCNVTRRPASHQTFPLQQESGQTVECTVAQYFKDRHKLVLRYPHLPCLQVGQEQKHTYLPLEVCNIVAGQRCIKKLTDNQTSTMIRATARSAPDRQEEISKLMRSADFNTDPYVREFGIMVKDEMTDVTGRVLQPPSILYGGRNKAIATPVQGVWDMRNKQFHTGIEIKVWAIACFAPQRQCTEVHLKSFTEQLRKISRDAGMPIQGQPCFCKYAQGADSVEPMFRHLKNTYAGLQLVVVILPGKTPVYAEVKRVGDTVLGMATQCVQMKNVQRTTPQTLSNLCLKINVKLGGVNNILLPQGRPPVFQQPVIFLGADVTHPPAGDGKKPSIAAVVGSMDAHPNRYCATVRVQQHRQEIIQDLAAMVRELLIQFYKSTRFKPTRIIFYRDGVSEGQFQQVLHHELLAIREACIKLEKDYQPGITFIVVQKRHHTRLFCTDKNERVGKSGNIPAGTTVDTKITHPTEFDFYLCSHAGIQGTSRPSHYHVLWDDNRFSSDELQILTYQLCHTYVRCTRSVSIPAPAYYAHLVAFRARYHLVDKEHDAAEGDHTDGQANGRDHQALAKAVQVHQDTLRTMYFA

Take “GAGUUCUACAGUCCGACGAUCCCAACACGCUUUACACCUGGAAUUCUCGGGUGCCAA / UGGAGUGUGACAAUGGUGUUUG / GATCGTCGGACTGTAGAACTC / TTGGCACCCGAGAATTCCA”: the binding signal (fold enrichment over input) in test [1] is 0.104; in test [2], 0.135.
As for “GAGUUCUACAGUCCGACGAUCCCAACAUGUCUCGCACCUGGAAUUCUCGGGUGCCAA / UGGAGUGUGACAAUGGUGUUUG / GATCGTCGGACTGTAGAACTC / TTGGCACCCGAGAATTCCA”, the binding signal (fold enrichment over input) in test [1] worked out at 0.0783; in test [3], 0.12; in test [2], 0.0523.
With “GAGUUCUACAGUCCGACGAUCCCAACAUGUCCUGCACCUGGAAUUCUCGGGUGCCAA / UGGAGUGUGACAAUGGUGUUUG / GATCGTCGGACTGTAGAACTC / TTGGCACCCGAGAATTCCA”, the binding signal (fold enrichment over input) came out at 0.0771 in test [1] and 0.0462 in test [2].
“GAGUUCUACAGUCCGACGAUCCCAACGUGUUUUACACCUGGAAUUCUCGGGUGCCAA / UGGAGUGUGACAAUGGUGUUUG / GATCGTCGGACTGTAGAACTC / TTGGCACCCGAGAATTCCA”: the figures for the binding signal (fold enrichment over input) in test [1] and in test [2] were 0.103 and 0.0538, respectively.
“GAGUUCUACAGUCCGACGAUCCCAACAUGCCCCGCACCUGGAAUUCUCGGGUGCCAA / UGGAGUGUGACAAUGGUGUUUG / GATCGTCGGACTGTAGAACTC / TTGGCACCCGAGAATTCCA”: the binding signal (fold enrichment over input) in test [1] is 0.0965; in test [3] it was 0.134; in test [2], 0.0428.
“GAGUUCUACAGUCCGACGAUCCCAACGUGCCCUACACCUGGAAUUCUCGGGUGCCAA / UGGAGUGUGACAAUGGUGUUUG / GATCGTCGGACTGTAGAACTC / TTGGCACCCGAGAATTCCA”: the binding signal (fold enrichment over input) in test [1] worked out at 0.114; in test [2], 0.0533.
The corresponding values for “GAGUUCUACAGUCCGACGAUCCCAACGCAUCUCGCACCUGGAAUUCUCGGGUGCCAA / UGGAGUGUGACAAUGGUGUUUG / GATCGTCGGACTGTAGAACTC / TTGGCACCCGAGAATTCCA” are 0.082 and 0.0373.
